The supplement of paper PMC4723716
± gives the uncertainty stated by the source. The full ranking holds about 9,900 compounds; the median of “viability index relative to DMSO control” is about 1, and the lowest 2% start at about 0.85. This is one part of the list.

The compounds below were run on Plasmodium falciparum NF54 stage V gametocytes (assay: viability index relative to DMSO control (fraction); higher = less gametocyte killing). Settings: 2.5 µM, library set: Broad Institute DOS, incubation time: 72 h.
Procedure: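 Broad DOS informer set and blood-stage-active DOS compounds screened in duplicate at 2.5 µM against P. falciparum NF54 stage V gametocytes with the serum-free one-step SaLSSA (1536-well): 72 h at 37 °C under low oxygen, then saponin lysis and MitoTracker Red CMXRos staining, with high-content imaging. Viability index = viable-object count divided by the plate mean of DMSO wells (0 = killed, about 1 = inactive).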

Compound	viability index
COCC(=O)Nc1ccc2c(c1)C(=O)N(C)[C@@H]1CC[C@@H](CC(=O)NC3Cc4ccccc4C3)O[C@H]1CO2	1.17 ± 0.19
CN1CCN(C(=O)C[C@H]2CC[C@@H]3[C@H](COC[C@H](O)CN3Cc3cccc(-c4ccncc4)c3)O2)CC1	1.08 ± 0.028
C[C@@H]1CN([C@H](C)CO)C(=O)c2c(c3ccccc3n2C)-c2ccccc2CO[C@@H]1CN(C)Cc1cccc(C(F)(F)F)c1	0.89 ± 0.041
CN(C)C(=O)c1ccc(-c2ccc([C@H]3[C@@H]4CN(Cc5ccccc5Cl)C[C@H]3N4)cc2)cc1	0.846 ± 0.021
C/C=C/c1ccc([C@H]2[C@H]3CNC[C@@H]2N3Cc2ccc3c(c2)OCO3)cc1	0.918 ± 0.068
CN1C(=O)c2cc(NS(=O)(=O)c3cccc(F)c3)ccc2OC[C@H]2O[C@@H](CC(=O)NCCN3CCCCC3)CC[C@@H]21	1 ± 0.012
C[C@@H]1CN([C@@H](C)CO)C(=O)c2cc(-c3ccc(F)cc3)cnc2O[C@@H]1CN(C)S(C)(=O)=O	0.995 ± 0.18
CC(C)C#Cc1ccc([C@H]2[C@H]3CN(C(=O)Cc4ccccc4)CC(=O)N3[C@H]2CO)cc1	1.045 ± 0.0096
CCC(=O)N1C[C@H](O)COC[C@H]2O[C@H](CC(=O)NCc3ccc(Oc4ccccc4)cc3)CC[C@@H]21	1.01 ± 0.046
C/C=C/c1ccc([C@H]2[C@H](CO)N3C(=O)CN(C(=O)Nc4ccc(F)cc4)C[C@@H]23)cc1	1.07 ± 0.067
COc1ccccc1C#Cc1ccc([C@H]2[C@@H](CO)N3CCCCN(C(=O)C4CCC4)C[C@H]23)cc1	0.99 ± 0.017
Cc1noc(C)c1NC(=O)Nc1cccc2c1O[C@@H](CN(C)Cc1ccc(C(=O)Nc3ccccc3N)cc1)[C@H](C)CN([C@H](C)CO)C2=O	1.06 ± 0.029
COc1cccc(S(=O)(=O)N2CC[C@H]3[C@H](CO)Nc4ccc(C#Cc5cccnc5)cc4[C@H]32)c1	1.11 ± 0.082
OC[C@H]1[C@@H](c2ccc(Br)cc2)[C@@H]2CNCCCCN12	1.008 ± 0.0039
N#C[C@@H]1[C@H](c2ccccc2-c2ccccc2F)[C@@H](CO)N1C(=O)Cc1ccccc1	1.041 ± 0.0077
C[C@@H]1CN([C@H](C)CO)S(=O)(=O)c2ccc(C#CC3(O)CCCC3)cc2O[C@H]1CN(C)C(=O)Nc1cccc(F)c1	1.04 ± 0.069
C[C@@H]1CCCCO[C@@H](CN(C)C(=O)Nc2cccc3ccccc23)[C@H](C)CN([C@H](C)CO)C(=O)c2cc(NC(=O)CCC(F)(F)F)ccc2O1	0.878 ± 0.094
N#C[C@H]1[C@H](c2ccccc2C2=CCCCC2)[C@@H](CO)N1S(=O)(=O)c1ccccc1	0.757 ± 0.1
CC(C)[C@@H]1C/C=C\CCNC(=O)[C@H](C)CC(=O)N1	1.02 ± 0.048
C[C@H]1CN([C@@H](C)CO)C(=O)c2ccccc2-c2ccccc2CO[C@@H]1CN(C)C(=O)[C@H](Cc1ccccc1)N(C)C	1.01 ± 0.074
COc1cccc(CNC(=O)[C@@H]2[C@@H](CO)[C@@H]3Cn4c(ccc(-c5cncnc5)c4=O)[C@@H]3N2C)c1	1.08 ± 0.046
COc1cccc(C#Cc2ccc([C@@H]3[C@@H](C#N)N(C(=O)c4ccccn4)[C@@H]3CO)cc2)c1	1.15 ± 0.033

Compound	viability index
O=C(NC1CCCCC1)N1CC(=O)N2[C@H](C1)[C@H](c1ccc(-c3ccncc3)cc1)[C@@H]2CO	0.998 ± 0.11
CN1CCN(C(=O)C[C@@H]2CC[C@@H]3[C@H](COC[C@H](O)CN3CC3CCCCC3)O2)CC1	1.086 ± 0.0069
Cc1ccccc1S(=O)(=O)Nc1ccc2c(c1)C(=O)N(C)[C@H]1CC[C@@H](CC(=O)O)O[C@@H]1CO2	0.957 ± 0.013
O=C(C[C@@H]1CC[C@H]2[C@@H](COC[C@H](O)CN2Cc2cc(F)cc(F)c2)O1)Nc1nccs1	1.02 ± 0.045
COc1ccc2c3c([C@H](CO)N(C[C@]33CN(C3)C(=O)c3cccnc3)C(=O)Nc3ccc(F)cc3)n(C)c2c1	1.08 ± 0.059
Cc1noc(C)c1NC(=O)N(C)C[C@@H]1Oc2ccc(NC(=O)CCCN(C)C)cc2C(=O)N([C@H](C)CO)C[C@H]1C	1.08 ± 0.1
C[C@H](CO)N1C[C@H](C)[C@@H](CN(C)C(=O)Cc2ccccc2)OCCCC[C@H](C)Oc2ccc(NS(C)(=O)=O)cc2C1=O	1.101 ± 0.0013
O=C(C[C@H]1C=C[C@H](NC(=O)C2CCC2)[C@@H](CO)O1)NC1CCCCC1	1.04 ± 0.034
O=C(Nc1cc(F)ccc1F)N[C@H]1CC[C@@H](CC(=O)N2CCc3ccccc3C2)O[C@H]1CO	1.08 ± 0.14
C[C@@H]1CN([C@H](C)CO)S(=O)(=O)c2ccc(-c3ccc(F)cc3)cc2O[C@H]1CN(C)Cc1ccccc1C(=O)O	1.03 ± 0.0058
C/C=C/c1ccc([C@@H]2[C@@H](CO)N(C(C)=O)[C@H]2CN(CC)C(=O)CN(C)C)cc1	0.987 ± 0.056
C/C=C/c1ccc([C@@H]2[C@H](CO)N(C(=O)c3ccccc3)C23CN(C(C)=O)C3)cc1	1.09 ± 0.1
CCCC(=O)Nc1ccc2c(c1)OC[C@@H](C)N(C(=O)c1cccnc1)C[C@@H](C)[C@H](OC)CN(C)C2=O	0.992 ± 0.12
CCC(=O)N1CC2(C1)[C@@H](c1ccccc1)[C@@H](CO)N2CC1CC1	1.08 ± 0.06
CO[C@H](CN(C)C(=O)Nc1ccc(Cl)cc1)[C@@H](C)CN(Cc1ccccc1Cl)[C@@H](C)CO	1.03 ± 0.047
C[C@H]1C/C=C/C[C@H](c2ccc(F)cc2)NC(=O)[C@@H](Cc2ccccc2)N(C)C(=O)c2ccccc2O1.C[C@H]1C/C=C\C[C@H](c2ccc(F)cc2)NC(=O)[C@@H](Cc2ccccc2)N(C)C(=O)c2ccccc2O1	0.909 ± 0.037
O=C(c1ccccn1)N1CC[C@@H]2[C@@H](CO)Nc3ccc(C#Cc4cccnc4)cc3[C@@H]21	1.13 ± 0.082
CCCNC(=O)N(C)C[C@@H]1Oc2ncc(C#CC3CCCCC3)cc2C(=O)N([C@@H](C)CO)C[C@@H]1C	1.14 ± 0.013
C[C@@H]1CN([C@@H](C)CO)C(=O)Cc2cc(NC(=O)c3ccncc3)ccc2O[C@H]1CN(C)C(=O)Nc1ccc(F)cc1	0.988 ± 0.11
C[C@@H](NC(=O)C[C@@H]1C=C[C@@H](NS(=O)(=O)c2cccc(F)c2)[C@@H](CO)O1)c1ccccc1	1.16 ± 0.03
CN1c2ccc(Br)cc2[C@H]2[C@H](CCN2S(=O)(=O)c2ccccc2F)[C@@H]1CO	1.03 ± 0.049
O=C(Cc1cccnc1)N1CC(=O)N2[C@H](CO)[C@@H](c3ccc(C#CC4CCCCC4)cc3)[C@@H]2C1	1.07 ± 0.032
